Reference: the supplement of paper PMC10338343
± gives the standard deviation. The list shows a part of the results, in another mix than the full data.

system: MIWI (PIWIL1) piRISC loaded with L1MC piRNA (30 nt); test: pre-steady-state target cleavage rate (min^-1); MIWI and MILI are mouse PIWI proteins and EfPiwi is from a freshwater sponge; tags in brackets are library labels; higher = faster piRNA-guided slicing of the target; settings: guide: L1MC piRNA 5'p-UAACUAAAUACUAUGCAAGCUGUAGGUCCU; auxiliary factor: 500 nM mouse GTSF1
How it was run: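 Using HEPES–potassium acetate buffer at 33 °C, 1 nM active affinity-purified piRISC with a single synthetic guide was mixed with 0.1 nM transcribed, DNA-blocked target RNA library for 0–8 or 0–960 min, with or without 500 nM GTSF1 partner protein. Uncleaved targets were sequenced and normalised to depth and to weakly complementary targets, and three trials were pooled with k3 capped at 0.0001 min^-1. A burst-and-steady-state fit gave the pre-steady-state cleavage rate.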

Row | Sequence | pre-steady-state target cleavage rate
1 | UCCUGGAUCAGCUUGCAUAGUAUUUUCAUA | 0.142 ± 0.024
2 | UCCACCAUGAGCUUGCAUAGUAUUUAGUAA | 0.811 ± 0.088
3 | UCCUCCAACAGCUUGCAUAGAAUUUAGUUA | 0.394 ± 0.036
4 | UCCUGGAUGUGGUUGCAUAGUAUUUAGUAA | 0.0114 ± 0.005
5 | UCCUGGAUCACCUUGCAUAGUAAUUAGUUA | 0.101 ± 0.022
6 | UCCUGGAAGAGCUUGCAUUGUAUUUAGUUA | 0.6 ± 0.041
7 | UCGACCUACAGCUUGCUAUGUAUUUAGUUA | 0.152 ± 0.015
8 | UCCACCUUCAGCUUGGAUAGUAUUUAGUUA | 1.15 ± 0.033
9 | AGGACGUACAGCUUGCAUAGUAUUUUCAAA | 0.173 ± 0.044
10 | UCGACCUACAGGAAGCAUAGUAUUUAGUAA | 0.711 ± 0.065
11 | UCCUGGUACAGCUUGCAUAGUUAAUAGUUA | 0.0509 ± 0.015
12 | UCCUGGAUGUCCUUGCAUAGUAUUUAUUUA | 0.0276 ± 0.0078
13 | UCCUGGUACAGCUGGCAUAGUAUUUAGUUA | 0.643 ± 0.037
14 | UCCUGGAUGAGCAUGCAUAGUAUUUUGUUA | 0.214 ± 0.027
15 | UCCUCCUACAGCUUGCAUAGUAUAAUGUUA | 0.346 ± 0.027
16 | UCCUGGAUCAGCUUAGCAUAGUAUUUAGUUA | 0.866 ± 0.054
17 | UCCACCUACAGGUUGCAUUGUAUUUAGUUA | 0.657 ± 0.038
18 | UCCUGGAUCAGCUUUCAUAGUAUUUAGUUA | 0.49 ± 0.028
19 | UCCACCUACACCUUGCAUAGUAUUUUGUUA | 0.551 ± 0.077
20 | UCGACCUACACCUUGCAUAGUAUUUUCAAA | 0.405 ± 0.056

Row | Sequence | pre-steady-state target cleavage rate
21 | UCCUGCUACAGCUUGCAUAGGAUUUAGUUA | 0.0367 ± 0.0089
22 | UCCUGGAUGUGCUUGCAUAGUAUUCUAGUUA | 0.211 ± 0.037
23 | UCCUGGAUCAGCUUGCAUAGUAUUUAGCUUA | 0.332 ± 0.024
24 | UCCUGGAUCUGCUUGCAUAGUAUUAAGUUA | 0.275 ± 0.025
25 | UCCUCCUACUGCUUCCAUAGUAUUUAGUUA | 0.0668 ± 0.013
26 | UGGUCCUACAGCUUGCAUAGUUUUUAGUUA | 0.35 ± 0.02
27 | UCCACCAUCAGCUUGCAUAGUAUUUACAAA | 0.311 ± 0.038
28 | UCCUGGUACAGCUUGCAUAGUGAUUUAGUUA | 0.0476 ± 0.011
29 | UCCUGCUACAGCUUGCAUAGUAAUUAGAUA | 0.285 ± 0.054
30 | UCCUGGAUGAGGUUGCAAAGUAUUUAGUUA | 0.102 ± 0.014
31 | ACGACCUACAGCUUGCAUAGUAUUUAGUAA | 1.11 ± 0.042
32 | UCCACCUACAGCUUGCAUAGUAUUUACUAA | 0.211 ± 0.031
33 | UCCUGCUACAGCUUGCAUAGUAUUUAGUUG [g2:g25:cont:t1G] | 0.229 ± 0.019
34 | UCGACCUACAGCUUGCAUAGUGUUUAGUUA | 1.05 ± 0.041
35 | UCCUGGAUGAGCAUGCAUAGUUUUUAGUUA | 0.0446 ± 0.013
36 | AGGACCUACAGCUUGCAUAGUACUUUAGUUA | 0.774 ± 0.062
37 | UCGACCUACUGCUUGCAUAGUAAUUAGUUA | 0.847 ± 0.031
38 | UCCUGGAUCACCUUGCUUAGUAUUUAGUUA | 0.109 ± 0.02
39 | UCCUGGUACAGCUUGGCAUAGUAUUUAGUUA | 0.676 ± 0.14
40 | UCCACCUACAGCUUGCAUAGUAUUUAGUAA | 0.669 ± 0.069

same assay, conditions: guide: L1MC piRNA 5'p-UAACUAAAUACUAUGCAAGCUGUAGGUCCU; auxiliary factor: none (no GTSF1)

Row | Sequence | pre-steady-state target cleavage rate
41 | UCCUGGAUCAGCUUGCAUAGUAUUUUCAUA | 0.00506 ± 0.0023
42 | UCCACCAUGAGCUUGCAUAGUAUUUAGUAA | 0.0228 ± 0.0048
43 | UCCUCCAACAGCUUGCAUAGAAUUUAGUUA | 0.0218 ± 0.0054
44 | UCCUGGAUGUGGUUGCAUAGUAUUUAGUAA | 0.00475 ± 0.0025
45 | UCCUGGAUCACCUUGCAUAGUAAUUAGUUA | 0.00572 ± 0.0018
46 | UCCUGGAAGAGCUUGCAUUGUAUUUAGUUA | 0.0219 ± 0.007
47 | UCGACCUACAGCUUGCUAUGUAUUUAGUUA | 0.00452 ± 0.0012
48 | UCCACCUUCAGCUUGGAUAGUAUUUAGUUA | 0.0456 ± 0.0083
49 | AGGACGUACAGCUUGCAUAGUAUUUUCAAA | 0.00441 ± 0.0026
50 | UCGACCUACAGGAAGCAUAGUAUUUAGUAA | 0.00296 ± 0.0024
51 | UCCUGGUACAGCUUGCAUAGUUAAUAGUUA | 0.00882 ± 0.0026
52 | UCCUGGAUGUCCUUGCAUAGUAUUUAUUUA | 0.00546 ± 0.0019
53 | UCCUGGUACAGCUGGCAUAGUAUUUAGUUA | 0.0205 ± 0.0049
54 | UCCUGGAUGAGCAUGCAUAGUAUUUUGUUA | 0.00621 ± 0.0023
55 | UCCUCCUACAGCUUGCAUAGUAUAAUGUUA | 0.0146 ± 0.0024
56 | UCCUGGAUCAGCUUAGCAUAGUAUUUAGUUA | 0.0133 ± 0.0038
57 | UCCACCUACAGGUUGCAUUGUAUUUAGUUA | 0.0139 ± 0.0028
58 | UCCUGGAUCAGCUUUCAUAGUAUUUAGUUA | 0.0103 ± 0.0023
59 | UCCACCUACACCUUGCAUAGUAUUUUGUUA | 0.0223 ± 0.0035
60 | UCGACCUACACCUUGCAUAGUAUUUUCAAA | 0.00261 ± 0.0023

Row | Sequence | pre-steady-state target cleavage rate
61 | UCCUGCUACAGCUUGCAUAGGAUUUAGUUA | 0.00691 ± 0.002
62 | UCCUGGAUGUGCUUGCAUAGUAUUCUAGUUA | 0.0155 ± 0.0049
63 | UCCUGGAUCAGCUUGCAUAGUAUUUAGCUUA | 0.0283 ± 0.0079
64 | UCCUGGAUCUGCUUGCAUAGUAUUAAGUUA | 0.0106 ± 0.0034
65 | UCCUCCUACUGCUUCCAUAGUAUUUAGUUA | 0.00434 ± 0.00091
66 | UGGUCCUACAGCUUGCAUAGUUUUUAGUUA | 0.0428 ± 0.0092
67 | UCCACCAUCAGCUUGCAUAGUAUUUACAAA | 0.00312 ± 0.0029
68 | UCCUGGUACAGCUUGCAUAGUGAUUUAGUUA | 0.00639 ± 0.0029
69 | UCCUGCUACAGCUUGCAUAGUAAUUAGAUA | 0.00545 ± 0.0023
70 | UCCUGGAUGAGGUUGCAAAGUAUUUAGUUA | 0.00367 ± 0.0033
71 | ACGACCUACAGCUUGCAUAGUAUUUAGUAA | 0.0771 ± 0.016
72 | UCCACCUACAGCUUGCAUAGUAUUUACUAA | 0.00669 ± 0.0028
73 | UCCUGCUACAGCUUGCAUAGUAUUUAGUUG [g2:g25:cont:t1G] | 0.0367 ± 0.0072
74 | UCGACCUACAGCUUGCAUAGUGUUUAGUUA | 0.0665 ± 0.013
75 | UCCUGGAUGAGCAUGCAUAGUUUUUAGUUA | 0.0082 ± 0.0022
76 | AGGACCUACAGCUUGCAUAGUACUUUAGUUA | 0.0376 ± 0.011
77 | UCGACCUACUGCUUGCAUAGUAAUUAGUUA | 0.0259 ± 0.0058
78 | UCCUGGAUCACCUUGCUUAGUAUUUAGUUA | 0.00833 ± 0.0029
79 | UCCUGGUACAGCUUGGCAUAGUAUUUAGUUA | 0.0102 ± 0.0041
80 | UCCACCUACAGCUUGCAUAGUAUUUAGUAA | 0.0343 ± 0.0088
